In patent US20210352895A1, “SYNERGISTIC PESTICIDAL COMPOSITIONS AND METHODS FOR DELIVERY OF ACTIVE INGREDIENTS” (0903608 B.C. Ltd., priority 2018, published 2021):
Several values for one entry are separate records, joined by “and”; a condition that tells them apart may be missing. Identical values can stand only once. The name of at least one read-out is uncertain.

Assays:
Botrytis cinerea = assay: Synergistic Growth Inhibition Assay (MIC / FIC index, resazurin, 96-well) on Botrytis cinerea; assay type: cell-based; settings: incubation period of 48 hours; for MIC (B): Compound B alone
Description: (§1) In some embodiments, the synergistic action between the pesticidal active ingredient, and the at least one C4-C10 (or alternatively C11 or C12) saturated or unsaturated aliphatic acid components of the pesticidal compositions according to embodiments of the present disclosure was tested using a Synergistic Growth Inhibition Assay, which is derived from and related to a checkerboard assay as is known in the art for testing of combinations of antimicrobial agents. In the Synergistic Growth Inhibition Assay used in accordance with some embodiments of the present disclosure, multiple dilutions of combinations of pesticidal active ingredient and at least one C4-C10 saturated or unsaturated aliphatic acid agents are tested in individual cells for inhibitory activity against a target pest or pathogenic organism. In one such embodiment, the combinations of pesticidal active ingredient and C4-C10 (or alternatively C11 or C12) saturated or unsaturated aliphatic acid agents may preferably be tested in decreasing concentrations. In a further such embodiment, the combinations of pesticidal active ingredient and C4-C10 (or alternatively C11 or C12) saturated or unsaturated aliphatic acid agents may be tested in increasing concentrations. These multiple combinations of the pesticidal active ingredient and at least one C4-C10 (or alternatively C11 or C12) saturated or unsaturated aliphatic acid agents may be prepared in 96-well microtiter plates. In one such embodiment, the Synergistic Growth Inhibition Assay then comprises rows which each contain progressively decreasing concentrations of the pesticidal active ingredient and one or more C4-C10 (or alternatively C11 or C12) saturated or unsaturated aliphatic acid agents to test for the MIC of the agents in combination at which growth of the target pest or pathogen is inhibited. Thus, each well of the microtiter plate is a unique combination of the two agents, at which inhibitory efficacy of the combination against the target pest or pathogen can be determined.
(§2) In one embodiment according to the present disclosure, for each row of microtiter cells in the Synergistic Growth Inhibition Assay, the FIC index is calculated from the lowest concentration of the pesticidal active ingredient and one or more C4-C10 saturated or unsaturated aliphatic acid agents necessary to inhibit growth of a target pest or pathogen. The FIC of each component is derived by dividing the concentration of the agent present in that well of the microtiter plate by the minimal inhibitory concentration (MIC) needed of that agent alone to inhibit growth of the target pest or pathogen. The FIC index is then the sum of these values for both agents in that well of the microtiter plate. The FIC index is calculated for each row as follows:
(§3) FICindex=MICa/MICA+MICb/MICB
(§4) Fractional inhibitory concentration indices may then used as measure of synergy. […] When the FIC index is equal to 1, the combination is additive.
(§5) Then, serial dilutions of these initial compositions in successive wells in the row of the microtiter plate were used to assay the pesticidal composition under the same conditions to determine the concentration of the composition combining the two agents corresponding to the microtiter well in which growth inhibition of the target pest or organism ceases.
Similarly to as described above, Resazurin was used as an indicator of growth or inhibition of growth of Botrytis cinerea in the exemplary Synergistic Growth Inhibition Assay. In addition to the color change of the resazurin, an optical or visual examination of the microtiter well may also be made to additionally determine the presence of growth or inhibition of growth of the Botrytis cinerea.

Sclerotinia sclerotiorum = assay: Synergistic Growth Inhibition Assay (MIC / FIC index, resazurin, 96-well) on Sclerotinia sclerotiorum; assay type: cell-based; settings: for MIC (A): Compound A alone, Sclerotinia sclerotiorum, incubation period of 7 days
Description: as §1, §2, §3, §4, §5
Similarly to as described above, Resazurin was used as an indicator of growth or inhibition of growth of Sclerotinia sclerotiorum in the exemplary Synergistic Growth Inhibition Assay. […]

SMILES	MIC (B) (Botrytis cinerea)	MIC (A) (Sclerotinia sclerotiorum) [µg/mL]	further results
CCC(O)C(=O)O (stereo not drawn) [2-hydroxybutyric acid]	2500 µg/mL		
CC(O)CC(=O)O (stereo not drawn) [3-Hydroxybutyric acid, 3-hydroxybutyric acid]	10000 µg/mL and 5000 µg/mL		
CCCCCCCC(O)CC(=O)O (stereo not drawn) [3-Hydroxydecanoic acid, 3-hydroxydecanoic acid]	125 µg/mL		
CCCC(O)CC(=O)O (stereo not drawn) [3-Hydroxyhexanoic acid, 3-hydroxyhexanoic acid]	2500 µg/mL and 5000 µg/mL		
C=CCCCCCCCC(=O)O [9-Decenoic acid, 9-decenoic acid]	156.2 µg/mL		
CC1COC(Cn2cncn2)(c2ccc(Oc3ccc(Cl)cc3)cc2Cl)O1 (stereo not drawn) [Difenoconazole, reference compound]		12.75	MIC (A) (Botrytis cinerea; Compound A alone): 51 µg/mL
CCCCCCC(=O)O [Heptanoic acid, heptanoic acid]			MIC (B) (Sclerotinia sclerotiorum; Compound B alone, 7 days incubation): 39.06 µg/mL
COC(=O)N(OC)c1ccccc1COc1ccn(-c2ccc(Cl)cc2)n1 [Pyraclostrobin, pyraclostrobin, reference compound]		3.75	MIC (A) (Sclerotinia sclerotiorum; 2-fold dilutions): 3.75 µg/mL
CC(C)(C)C(O)(CCc1ccc(Cl)cc1)Cn1cncn1 (stereo not drawn) [Tebuconazole, reference compound]		112.5	
CCC/C=C/C(=O)O [Trans-2-hexenoic acid, trans-2-hexenoic acid]	312.5 µg/mL		
